# PMC4336329 (PLoS ONE, 2015)
# Among all 310,000 compounds or so, about 14,000 (4.5%) showed an effect of 50% or more. The effect is printed as a negative number. Some of the results follow.
# Molecular target: human ether-à-go-go-related gene (hERG) potassium channel (human, UniProt Q12809)
# Assay: primary screen, population patch clamp on CHO cells stably expressing hERG
# 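Also: peak tail current of the secondary pulse compared with the same well before compound.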
# Sequence of human ether-à-go-go-related gene (hERG) potassium channel (Q12809 whole entry, looked up): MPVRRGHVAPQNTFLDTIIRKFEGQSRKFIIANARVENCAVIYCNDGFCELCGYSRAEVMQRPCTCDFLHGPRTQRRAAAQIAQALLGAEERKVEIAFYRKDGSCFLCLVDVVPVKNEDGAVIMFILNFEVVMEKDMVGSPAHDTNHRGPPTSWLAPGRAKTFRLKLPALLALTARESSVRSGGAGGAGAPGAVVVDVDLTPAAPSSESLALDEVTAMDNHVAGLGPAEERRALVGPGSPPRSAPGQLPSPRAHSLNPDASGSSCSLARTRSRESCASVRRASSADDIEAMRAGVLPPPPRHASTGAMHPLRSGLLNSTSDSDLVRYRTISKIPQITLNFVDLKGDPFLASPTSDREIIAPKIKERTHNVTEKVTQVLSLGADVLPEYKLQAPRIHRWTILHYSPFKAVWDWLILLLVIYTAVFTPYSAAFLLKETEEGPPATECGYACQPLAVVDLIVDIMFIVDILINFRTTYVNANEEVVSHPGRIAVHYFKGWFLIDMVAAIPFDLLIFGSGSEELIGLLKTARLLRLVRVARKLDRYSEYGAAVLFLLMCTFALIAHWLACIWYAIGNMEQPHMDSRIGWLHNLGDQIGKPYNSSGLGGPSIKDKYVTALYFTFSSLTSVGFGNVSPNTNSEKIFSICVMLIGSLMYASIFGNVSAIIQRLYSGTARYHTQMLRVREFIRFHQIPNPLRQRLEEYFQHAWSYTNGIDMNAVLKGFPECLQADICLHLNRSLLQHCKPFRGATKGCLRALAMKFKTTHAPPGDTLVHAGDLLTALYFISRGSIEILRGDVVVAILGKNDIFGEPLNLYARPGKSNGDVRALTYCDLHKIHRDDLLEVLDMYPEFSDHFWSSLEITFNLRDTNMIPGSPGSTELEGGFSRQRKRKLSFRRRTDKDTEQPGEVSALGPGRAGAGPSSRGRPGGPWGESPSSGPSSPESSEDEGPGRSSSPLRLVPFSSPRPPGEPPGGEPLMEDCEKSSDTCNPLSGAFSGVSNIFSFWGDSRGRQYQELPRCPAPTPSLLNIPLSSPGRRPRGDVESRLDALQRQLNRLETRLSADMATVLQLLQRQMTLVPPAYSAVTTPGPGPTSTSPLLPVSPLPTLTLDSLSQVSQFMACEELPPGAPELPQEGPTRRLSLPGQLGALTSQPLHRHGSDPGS
row,Compound,"hERG current change (%, negative = inhibition) at 10uM [%]"
1,CCn1c(Oc2cccc(Br)c2)nc2c1c(=O)n(C)c(=O)n2C,15.4
2,CSC1=NC2(CC(c3ccccc3)Oc3cc(O)ccc32)CC(C)(C)N1 (centres unmarked),-76.1
3,Cc1ccc(CN2CCC(n3nccc3NC(=O)C3CCOC3)CC2)cc1C (centres unmarked),-20.5
4,Cc1ccc(NC(=O)CSc2nnc(-c3cccnc3)o2)c(C)c1,3.3
5,Cc1n[nH]c(=O)c2c(NC(=O)CSc3ccc(Br)cc3)oc(C)c12,-8.42
6,COc1ccccc1NC(=O)CSc1nnc2ccccn12,6.98
7,CN(CC(=O)NCCc1ccccc1)Cc1ccco1,13.9
8,CCOc1cc(S(=O)(=O)N2CCN(c3ccc(F)cc3)CC2)c(OCC)cc1-n1cnnn1,-23.2
9,CCOc1ncccc1C(=O)N1CCN(C(=O)c2ccccc2)CC1,16.5
10,Cc1nc(N2CCN(Cc3ccc4c(c3)OCO4)CC2)c2cc(-c3ccccc3)sc2n1,17.6
11,CN(C)/C=C(\C(=O)c1ccccc1)c1nnnn1-c1ccccc1,4.06
12,OCCN1CCN(c2nc(-c3ccccc3O)nc3ccccc23)CC1,-25.1
13,CC1(C)CN(C(=S)Nc2ccc(F)cc2F)C1=O,18.8
14,O=C(NNC(=O)c1nn(-c2ccc(F)cc2)ccc1=O)c1ccc(Cl)cc1,-16.5
15,COc1ccc(CCN2C(=O)CC(N3CCN(S(=O)(=O)c4ccccc4)CC3)C2=O)cc1 (centres unmarked),-18.7
16,Cc1ccc(NC(=O)COC(=O)CN2C(=O)NC(C)(C)C2=O)cc1S(=O)(=O)N1CCOCC1,17.4
17,CC1CCC(C(C)C)C(OC(=O)COC(=O)c2cccn2C)C1 (centres unmarked),16.1
18,CC(Nc1cc(N2CCCC2)ccc1[N+](=O)[O-])c1ccccc1 (centres unmarked),10.8
19,Cc1cccc(-n2c(SCCC(=O)O)nnc2-c2cccs2)c1C,19.2
20,Cn1nnnc1SCC(=O)c1ccc2c(c1)OCCO2,30
21,COc1cccc(-c2nnc3sc(-c4ccccc4)nn23)c1,8.6
22,O=C(Nc1ccccc1)c1cc([N+](=O)[O-])ccc1Cl,4.05

row,Compound,"hERG current change (%, negative = inhibition) at 10uM [%]"
1,S=C(Nc1ccccc1Cl)N(Cc1ccccc1)Cc1ccccn1,-20
2,CCOC(=O)C1(CC2CC2)CCN(Cc2ccc(O)c(Cl)c2)CC1,-41.6
3,Cc1ccc(-c2csc(N=C(N)N)n2)cc1,6.15
4,Cc1nc(-c2ccccc2O)n(-c2ccccc2)n1,9.36
5,Cc1ccc2ccc(S(=O)(=O)NCc3ccco3)cc2c1,-5.26
6,Cc1ccc2c(c1)c1c3n2CCN(C(=O)Cn2c(-c4ccccc4)noc2=O)C3CCC1 (centres unmarked),-5.64
7,CCc1ccc(C(=O)Nc2cccnc2Oc2ccc(Cl)cc2)cc1,-4.34
8,Cc1ccc(NC(=O)C(=O)c2c[nH]c3ccccc23)cc1,22.9
9,CC(=O)N/N=C(/C)c1ccc(NC(=O)c2csc(C)c2C)cc1,21.4
10,CC(C)=CCN1CCN(Cc2ccc(Oc3ncccn3)cc2)CC1CCO (centres unmarked),9.1
11,COc1ccccc1/C=C/C(=O)OCCN1C(=O)c2ccccc2C1=O,4.79
12,CC(C)CNC(=O)COC(=O)c1ccc2c(c1)C(=O)N(Cc1ccco1)C2=O,-0.0401
13,O=C(c1ccccn1)c1ccc2ccccc2n1,9.62
14,O=C(Nc1ccccc1)C(c1ccccc1)c1ccccc1,15.1
15,COc1ccc(CCN(C(=O)C(F)(F)F)C(C(=O)NC2CCCC2)c2cccs2)cc1 (centres unmarked),0.495
16,COc1ccc(OC)c(NC(=O)CCCCCn2nnc3ccccc3c2=O)c1,-2.09
17,Nc1nc(NCc2ccccc2)nc(NCc2ccccc2)c1[N+](=O)[O-],16.2
18,CC(NCc1ccccc1O)C12CC3CC(CC(C3)C1)C2.Cl (centres unmarked),-37.4
19,COc1cc(/C=N/NC(=O)c2ccncc2)ccc1OC(=O)c1ccc([N+](=O)[O-])cc1,2.29
20,COc1ccc(CN(C(=O)c2ccccc2OC)C2CCS(=O)(=O)C2)cc1 (centres unmarked),-6.54
21,O=C(Nc1nnc(CSCc2ccc(F)cc2)s1)c1ccc([N+](=O)[O-])cc1,-1.41
22,CC(Oc1cc2oc(=O)c3c(c2cc1Cl)CCCC3)C(=O)NCc1cccnc1 (centres unmarked),-12.9

row,Compound,"hERG current change (%, negative = inhibition) at 10uM [%]"
1,CCOC(=O)C1=C(N)OC2=C(C(=O)CCC2)C12C(=O)N1c3c(ccc(C)c32)C(C)=CC1(C)C (centres unmarked),-20.8
2,Cc1noc(NS(=O)(=O)c2ccc(NC(=O)/C=C/c3ccc(Br)cc3)cc2)c1C,10.9
3,NC(=O)C1(N2CCCCC2)CCN(C(=S)NCCc2ccccc2)CC1,3.91
4,COc1ccc(CNC(=O)C2CCC(CNc3c(N4CCOCC4)c(=O)c3=O)CC2)cc1 (centres unmarked),5.29
5,CCOC(=O)c1c(C)[nH]c(C)c1S(=O)(=O)NCC1CCN(Cc2cccc(F)c2)CC1,-1.69
6,CCCN1C2CCCC1CC(NC(=O)c1ccc(OC)cc1)C2 (centres unmarked),-30.1
7,Cc1ccc(S(=O)(=O)NNC(=S)Nc2c(Cl)cccc2Cl)cc1,16.8
8,O=C(CNC(=O)Cc1ccccc1)NCC(=O)OCC(=O)c1ccc(F)cc1,8.03
9,COc1ccccc1NC(=O)C1=C(C)Nc2ncnn2C1c1ccccc1C (centres unmarked),5.06
10,Cc1nc2sc(C(c3ccccc3)N3CCN(C(=O)c4ccco4)CC3)c(O)n2n1 (centres unmarked),8.97
11,NC(=O)CC(NC(=O)Cc1cccc2ccccc12)c1ccc(NCC2CC2)c([N+](=O)[O-])c1 (centres unmarked),-22.3
12,Cc1ccc(-n2nnnc2SCC(=O)Nc2sccc2C#N)cc1,14.5
13,Cc1ccccc1NC(=S)NC1(C)CCS(=O)(=O)C1 (centres unmarked),-3.47
14,O=C(NCC(c1cccs1)N1CCOCC1)c1ccco1 (centres unmarked),13.3
15,COc1ccc(C(=O)NC2CCCCC2)cc1S(=O)(=O)N1CCOCC1,-14.8
16,Cc1sc2ncnc(OCc3nnc(-c4cccs4)o3)c2c1C,2.2
17,COc1ccc(C(=O)NNC2=NCCCCC2)cc1,21.6
18,Cc1ccc(C)c(S(=O)(=O)N2CCN(C(=O)CCC(=O)NCc3ccc(Cl)cc3)CC2)c1,-65.1
19,CCn1c(CCNC(=O)c2ccc(OC)cc2)nnc1SCC(=O)Nc1ccccc1F,-22.7
20,N#CC1=C(N)Oc2cc(N)ccc2C1c1cc(Br)cs1 (centres unmarked),-13.6
21,COc1ccccc1CC(=O)Nc1ccc([N+](=O)[O-])cc1O,17.8
22,FC(F)(F)c1ccccc1NC(=S)Nc1cccc(Cl)c1,4.06

row,Compound,"hERG current change (%, negative = inhibition) at 10uM [%]"
1,C#CCOCCOCCOCCNc1nc(N2CCN(C(=O)[C@H](C(C)C)n3cc(CCO)nn3)CC2)nc(N2CCN(C(=O)[C@H]([C@@H](C)CC)n3cc(CCC[NH+]=C(N)N)nn3)CC2)n1.[Cl-],12.9
2,Cc1[nH]c2ccccc2c1C(=O)COC(=O)C1CC(=O)N(Cc2ccccc2)C1 (centres unmarked),-11.7
3,C=CCNC(=O)c1ccccc1NC(=O)c1ccc(Cl)c(S(=O)(=O)Nc2cc(C)ccc2C)c1,11.9
4,CC1CCC(NC(=O)Cn2cc3c(n2)CCCC3)CC1 (centres unmarked),8
5,CCCC(=O)NC(NC(=S)Nc1ccc(S(N)(=O)=O)cc1)C(Cl)(Cl)Cl (centres unmarked),-2.12
6,O=C(CSCc1ccc([N+](=O)[O-])cc1)Nc1ccccc1C(=O)O,24.7
7,CN(C)c1ccc(Nc2ncnc3ccc(Br)cc23)cc1,20.4
8,Cc1ccccc1NC(=S)NCc1ccc2c(c1)cc(C)n2C,8.83
9,O=C(Cn1nnc(-c2ccc(N3CCOCC3)cc2)n1)OC1CCCCC1,-3.51
10,CCn1nnc2cc(C(=O)O)ccc21,7.03
11,COc1ccccc1OCC(=O)Nc1c2c(nn1-c1ccc(F)cc1)CS(=O)(=O)C2,0.931
12,CCOc1ccc(C(=O)NCC(=O)N2CCC(C)CC2)cc1OCC,3.68
13,CCCC(=O)N1CCN(c2ccc(NC(=O)c3ccc(Br)o3)cc2)CC1,-8.1
14,CCC[C@@H]1CCCO[C@@](C(=O)NCc2cc(C)n(C)n2)(C(F)(F)F)C1,3.39
15,Cn1c(-c2ccsc2)c(-c2cccs2)c2cc(Br)ccc21,-5.11
16,C=CCc1c(C)nc(SC(C)C)[nH]c1=O,-2.85
17,O=C(N/N=C/C1CC=CCC1)c1cc(-c2cccnc2)nc2ccccc12 (centres unmarked),2.24
18,COC(=O)c1ccc(NC(=O)c2cc(-c3ccncc3)nc3ccccc23)cc1,-31.3
19,CCN1C(=O)[C@H]2[C@@H](c3ccc(-c4cc(C(C)=O)cs4)cc3)N3CCCC[C@@]3(C(=O)OC)[C@H]2C1=O.O=C(O)C(F)(F)F,10.2
20,CN1CCC(c2c[nH]c3ccccc23)C1 (centres unmarked),10.9
